According to PubChem BioAssay AID1745853 (National Center for Advancing Translational Sciences (NCATS), 2022):
Some of the results follow. Shown are side measurements of this screen, not its main read-out; they come without a call.

What was measured:
Assay in all cases: Primary Screen for Target Class Profiling of Small Molecule Inhibitors of Methyltransferases
[1] = target: Glycine N-methyltransferase (Homo sapiens) (UniProt Q14749); settings: purified enzyme, MTase-Glo SAH luminescence; measured here: GNMT inhibition; at 40 µM; stronger effect = lower value
How it was run: (§1)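 Each enzyme was reacted with SAM and its substrate, with compounds tested once at 40 uM; SAH formed was read by MTase-Glo luminescence.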

[2] = target: Guanidinoacetate N-methyltransferase (Homo sapiens) (UniProt Q14353); settings: purified enzyme, MTase-Glo SAH luminescence; measured here: GAMT inhibition; at 40 µM; stronger effect = lower value
How it was run: as §1

[3] = target: Histamine N-methyltransferase (Homo sapiens) (UniProt P50135); settings: purified enzyme, MTase-Glo SAH luminescence; measured here: HNMT inhibition; at 40 µM; stronger effect = lower value
How it was run: as §1

[4] = target: Nicotinamide N-methyltransferase (Homo sapiens) (UniProt P40261); settings: purified enzyme, MTase-Glo SAH luminescence; measured here: NNMT inhibition; at 40 µM; stronger effect = lower value
How it was run: as §1

[5] = target: Phenylethanolamine N-methyltransferase (Homo sapiens) (UniProt P11086); settings: purified enzyme, MTase-Glo SAH luminescence; measured here: PNMT inhibition; at 40 µM; stronger effect = lower value
How it was run: as §1
% is scaled to controls: 0 for no effect and ±100 for the full control effect.

Structure (SMILES) | activity change, negative = inhibition [1] | activity change, negative = inhibition [2] | activity change, negative = inhibition [3] | activity change, negative = inhibition [4] | activity change, negative = inhibition [5]
O=C(NCc1ccc(F)cc1)c1ccc2nnc(CC3CC3)n2c1 | -6.56% | -5.74% | -3.12% | -11.3% | -11.4%
Cc1noc(C2CC3(CCN(C(=O)Nc4ccccc4)CC3)CN2C)n1 (stereo not given) | -6.75% | -6.87% | -2.16% | -8.7% | -6.85%
O=C(C1CCOCC1)N1CCC2(CC1)CC(N1CCCC1)CCO2 (stereo not given) | -5.03% | -0.239% | -7.09% | -5% | -2.96%
O=C(NCC1(c2nc(-c3ccccc3)cs2)CCOCC1)c1cccc(-c2noc(C(F)(F)F)n2)c1 | 3.49% | -6.36% | -2.03% | -23.4% | -12.4%
CN1CCN(C2=Nc3ccccc3Nc3ccc(Cl)cc32)CC1 | -1.36% | -9.99% | -6.86% | -26.1% | -9.79%
CCCN(CCC)CCN1C(=O)c2cc3sc(CC)cc3n2CC1(C)C(=O)NC1CCCCC1 (stereo not given) | 4.26% | 2.03% | -12.5% | 2% | 3.96%
CCOC(=O)c1cc2n(n1)CC(C)(C(=O)NC1CCCCCC1)N(c1cc(Cl)ccc1C)C2=O (stereo not given) | -1.11% | 3.74% | -23% | -2.29% | 1.32%
COc1ccc(CNC(=O)c2ccc3c(=O)nc4c(-c5ccccc5)n[nH]n4c3c2)cc1 | -12.1% | 0.817% | 3.05% | -13.4% | -3.98%
CCc1ccc(NC(=O)CSc2nnc3n(Cc4ccccc4)c(=O)c4ccccc4n23)cc1 | -3.16% | 3.92% | -4.54% | -2.34% | -1.68%
NC[C@H]1CCC[C@@H](CNC(=O)[C@@H](Cc2c[nH]c3ccccc23)NC(=O)N2CCC3(C=Cc4ccccc43)CC2)C1 | 1.84% | 4.8% | 2.88% | -17.8% | -2.83%
O=C(CSc1nc2ccccc2c(=O)n1-c1ccccc1)Nc1ccc2c(c1)CCC2 | 2.06% | -9.61% | 10.8% | -24% | -4.96%
COc1cc2c(Nc3ccc(Br)cc3F)ncnc2cc1OCC1CCN(C)CC1 | -29.1% | -3.02% | -79% | -35% | -18.2%
CCN(C(=O)c1cccc(F)c1F)[C@@H]1CCN(c2ncccc2C#N)C[C@H]1O | -1.91% | -5.17% | 0.757% | -8.77% | 10.3%
Cc1ccc(CNC(=O)CCc2nnc3n(Cc4ccc(F)cc4)c(=O)c4ccccc4n23)cc1 | -5.86% | -1.71% | 2.25% | 2.49% | -9.68%
Cc1ccc(CN2C(=O)c3cc4occc4n3CC2(C)C(=O)NC2CCCC(C)C2C)cc1 (stereo not given) | -3.18% | 2.33% | -6.41% | -9.9% | -8.41%
C/C=C(\C)C(=O)OC1C(C)C2(O)C(C=C(CO)CC3(O)C(=O)C(C)=CC32)C2C(C)(C)C12OC(C)=O (stereo not given) | -7.59% | -5.05% | -1.93% | -18.2% | -15.9%
O=C(CCn1ccc2cc(S(=O)(=O)N3CCCC3)ccc21)NCc1ccc2c(c1)OCO2 | -11.8% | 0.388% | -2.93% | -22.1% | -4.42%
CC(NS(=O)(=O)c1ccc2[nH]c(=O)[nH]c2c1)c1ccccc1 (stereo not given) | 14.8% | 0.992% | 2.6% | 1.47% | 4.35%
CC(C)=CCCC1(C)Oc2cc3c(c4c2C2C(O4)C(C)(O)CCC21)CN(C(CCC(=O)O)C(=O)O)C3=O (stereo not given) | 2.56% | 0.095% | 3.42% | -14.7% | 4.28%
CCOc1ccccc1CN1C(=O)c2nc3ccccc3n2CC1(C)C(=O)NC1CCCC(C)C1C (stereo not given) | 1.98% | 0.351% | 0.674% | -3.65% | -3.72%
O=C(CCc1nnc2n(Cc3ccc(F)cc3)c(=O)c3ccccc3n12)N1CCN(C2CCCCC2)CC1 | -4.73% | -0.109% | -6.45% | 1.05% | -2.36%

Structure (SMILES) | activity change, negative = inhibition [1] | activity change, negative = inhibition [2] | activity change, negative = inhibition [3] | activity change, negative = inhibition [4] | activity change, negative = inhibition [5]
CSc1ccc(-c2nc(CN(C)Cc3cc(C)no3)c(C)o2)cc1 | -3.47% | 0.093% | 0.749% | -3.67% | -10.2%
Cn1nc2n(c1=O)CCN(Cc1ccc(Br)s1)CC2 | -2.83% | -1.54% | 1.01% | -4.92% | -0.926%
CCCn1c(=O)c2ccc(C(=O)NC(C)CC)cc2n2c(SCC(=O)c3ccc(C)cc3)nnc12 (stereo not given) | 8.91% | 0% | 12.2% | 10.1% | 8.63%
COc1ccc(NC(=O)Cn2c(=O)c3cc(Cl)ccc3n3nncc23)cc1 | -3.86% | 3.7% | 5.5% | 3.72% | -2.87%
COc1ccc(-c2nnc3n(CCc4ccccc4)c(=O)c4ccccc4n23)c(OC)c1 | 0.404% | -40.4% | 4.91% | 0.659% | -1.74%
CS(=O)(=O)N(C1CC1)C1CCOC2(CCN(C(=O)CCC3CCCC3)CC2)C1 (stereo not given) | -0.179% | -0.985% | -0.062% | -1.12% | 0.509%
Cc1ccc(CNC(=O)C2(C)Cn3nc(C(=O)NCc4ccccc4C)cc3C(=O)N2C)cc1 (stereo not given) | 4.05% | 0.99% | 5.41% | 5.59% | 3%
COc1ccc(OC)c(CCN2C(=O)c3cc4ccccc4n3CC2(C)C(=O)NCCC(C)C)c1 (stereo not given) | 0.341% | 4.93% | 0.24% | -3.3% | -4.03%
Cc1noc(C)c1S(=O)(=O)N1CCC(Cc2nc(-c3cccnc3)n[nH]2)C1 (stereo not given) | -7.46% | -6.27% | -15.6% | -17.6% | -7.62%
Cc1ccc(C)c(C(=O)CSc2nnc3n(C)c(=O)c4ccc(C(=O)NC5CCCCC5)cc4n23)c1 | -4.3% | 3.56% | 0.295% | 0.404% | 1.99%
Cc1noc2c(NCCN(C)C)cc(-c3ccccc3)nc12 | -7% | -5.38% | -9.94% | -19.5% | -7.78%
O=C(NCc1ccc(F)c(F)c1)c1ccc2nnc(Cc3ccco3)n2c1 | -26.8% | -19.3% | -8.42% | -22.3% | -34%
COCCNC(=O)CCc1nnc2n(Cc3ccc(C)cc3)c(=O)c3ccccc3n12 | 1.15% | 2.25% | 9.92% | 13.5% | 3.26%
COC[C@@H]1[C@H](C(=O)N2CCN(c3ccccn3)CC2)CCC(=O)N1C | -5.89% | -11.2% | -2.62% | -15.5% | -10.1%
CC(C)C(=O)Oc1ccc(CO)cc1[C@H](CCN(C(C)C)C(C)C)c1ccccc1 | -3.66% | -0.893% | -6.13% | -14.6% | -3.49%
CC(C)c1ccc(NC(=O)CN(C)S(=O)(=O)c2ccc3[nH]c4c(c3c2)CCCC4)cc1 | -3.52% | 4.8% | -0.336% | -4.57% | 1.46%
Cc1c(C(=O)N2CC[C@@](O)(C3CCOCC3)[C@H](C)C2)n(C)c2c(C)cccc12 | -5.39% | -5.91% | -3.01% | -7.05% | 1.09%
CC(C)CCNC(=O)C1(C)Cn2c(cc3occc32)C(=O)N1Cc1ccc(Cl)cc1 (stereo not given) | -2.92% | 0% | 4.42% | 2.18% | 0.271%
CCOc1ccc(CNS(=O)(=O)c2cc3[nH]c(=O)[nH]c3cc2C)cc1OC | 14.6% | 0% | 14.4% | 1.87% | 8.12%
COc1ccccc1CNc1nc2c(-c3cccc(F)c3)nnn2c2ccccc12 | -6.6% | 1.04% | -9.64% | -16.2% | -13.1%
Cc1nc2c([nH]1)CCN(C(=O)c1ccc(NC(=O)c3ccccc3-c3ccccc3)cc1)c1ccccc1-2 | 3.92% | -5.66% | 7.72% | -30.4% | 2.06%

Structure (SMILES) | activity change, negative = inhibition [1] | activity change, negative = inhibition [2] | activity change, negative = inhibition [3] | activity change, negative = inhibition [4] | activity change, negative = inhibition [5]
Cc1cccc(CN2C(=O)c3ccc(-c4ccco4)n3CC2(C)C(=O)NC2CCCCCC2)c1 (stereo not given) | -1.95% | 3.9% | -1.93% | -6.51% | -1.1%
C=C1C(=O)O[C@@H]2[C@H]3C(C)=CC(=O)C3=C(C)CC[C@@H]12 | -22.5% | -21.7% | -2.02% | -17.5% | -7.12%
Cc1cccc(N2C(=O)c3ccc(-c4ccco4)n3CC2(C)C(=O)NCc2ccccc2)c1C (stereo not given) | -7.57% | 0% | 4.04% | 3.54% | -0.668%
c1ccc(-c2nnc([C@H]3CCN(Cc4ccco4)C3)o2)cc1 | -5.4% | -4.31% | -7.91% | -8% | -7.44%
CC1(C(=O)NC2CCCCCC2)Cn2c(nc3ccccc32)C(=O)N1Cc1ccccc1 (stereo not given) | -2.4% | -2.88% | -3.7% | -9.94% | -7.47%
Cc1ccc(-c2cn3c4c(sc3n2)CCCC4)cc1 | -4.1% | -10.6% | 6.17% | -47.7% | -17.4%
Cn1ccc2cc(CCC(=O)NCc3ccncc3)ccc21 | 13.2% | 1.53% | 10.2% | 4.81% | 10.6%
Nc1ncnc2c1nc(Cl)n2C1OC2COP(=O)(O)OC2C1O (stereo not given) | -1.88% | 2.23% | -2.8% | -7.48% | 2.71%
Cc1[nH]c2ccc(F)cc2c1-c1nc2c3cccnc3c3ncccc3c2[nH]1 | 7.28% | 2.61% | -1.41% | -10.2% | 1.93%
CCOc1ccc(NC(=O)NCCc2noc(C)n2)cc1 | -1.94% | -2.53% | 1.25% | -9.31% | 5.87%
CC1CCC2(CC1)NC(=O)N(CC(=O)N1CCc3ccccc31)C2=O (stereo not given) | -9.85% | -10.1% | -6.01% | -10.5% | -11.4%
COc1cc(Br)c(S(=O)(=O)Nc2ccc(C(F)(F)F)c(O[C@@H]3CCN(C)C3)c2)cc1OC | -7.47% | -10.2% | 0.917% | -21.3% | -6.73%
Cc1nsc(NC(=O)NCc2ccccc2OC(F)(F)F)n1 | -7.69% | -11.9% | -1.58% | -6.27% | 5.2%
CC(C)(C)N1CC(C(=O)NCCCc2ccccc2F)CC1=O (stereo not given) | 0.766% | 3.81% | 1.24% | 1.1% | 2.03%
CN(C)CCNC(=O)c1cc2n(n1)CC(C)(C(=O)NCc1ccc(F)cc1)N(C)C2=O (stereo not given) | 12.3% | 0.03% | 7.97% | 11.6% | 4.95%
CCCn1c(=O)c2ccc(Cl)cc2n2c(=O)n(Cc3ccccc3C)nc12 | 3.43% | 6.55% | 3.98% | 3.24% | 3.78%
CC(=O)Nc1c2n(c3ccccc13)CC(C)(C(=O)NC1CCCCC1)N(Cc1ccco1)C2=O (stereo not given) | -9.09% | -2.91% | -4.61% | -7.46% | 0.048%
CCCCOC(=O)COc1cc2oc(=O)cc(-c3ccccc3)c2cc1Cl | -4.09% | 0% | 1.71% | 0.579% | -3.49%
O=C(CCc1nnc2n(Cc3ccc(Cl)cc3)c(=O)c3ccccc3n12)Nc1ccc(F)cc1 | -1.24% | 0% | 8.54% | 3.49% | 2.8%
